{"source": "paper doi:10.1101/810531", "about": "(bioRxiv, 2019)", "binders": {"B1": {"name": "first helix of SNAP-25 ([…]) (domain or fragment)", "chain": "not shown"}}, "molecular_target": "SNARE domain of syntaxin 1a (aa 180-262) (Rattus norvegicus, UniProt P32851 fragment)", "sequence (P32851 180-262)": "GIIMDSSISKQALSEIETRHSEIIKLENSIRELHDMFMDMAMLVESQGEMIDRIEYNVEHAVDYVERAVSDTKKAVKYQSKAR", "assay": "native gel or EMSA", "data": [{"binder": "B1", "values": [{"measurement": "binding result", "result": "binds"}]}]}
